Experimental findings from the supplement of paper PMC12217912 are described below.

The other results are listed elsewhere or left out. Sequences were assembled here from the parent chain. Inactive controls read about 0.05.

Sequences and labels used below:
B1: TEV protease; numbered along this chain (parent)
chain: MGESLFKGPRDYNPISSSICHLTNESDGHTTSLYGIGFGPFIITNKHLFRRNNGTLVVQSLHGVFKVKDTTTLQQHLVDGRDMIIIRMPKDFPPFPQKLKFREPQREERICLVTTNFQTKSMSSMVSDTSCTFPSGDGIFWKHWIQTKDGQCGSPLVSTRDGFIVGIHSASNFTNTNNYFTSVPKNFMELLTNQEAQQWVSGWRLNADSVLWGGHKVFMVKPEEPFQPVKEATQL

In this assay the parent is B1. The experiment in a line: raw area under fraction-flipped curve 0-4 h after induction (AUC4h, not background-subtracted), DNA-recorder readout of cleavage of the substrate (dimensionless); higher = more cleavage of the substrate by the protease variant. The settings on record: temperature: 34 °C; time window: 0-4 h after rhamnose induction. On the procedure: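 In vivo DNA recorder in E. coli TOP10(DE3) ΔrhaA at 34 °C. Each TEVp single-site mutant (parent TEVp 0) is paired with a single-site variant of the 7-mer TEVs (canonical ENLYFQ|S). The substrate sits between flexible linkers in a Bxb1-sfGFP-TEVs-SsrA fusion, so cleavage stabilises Bxb1 and speeds flipping of a recombination array, read by NGS. The value is the raw area under the fraction-flipped curve over 0-4 h after rhamnose induction (AUC4h), with ≥20 reads per time point. It is not background-subtracted; inactive controls average about 0.047.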
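Note: Bxb1 expression induced with 0.2% (w/v) L-rhamnose at OD600 near 0.5, cultures sampled hourly, flipped fraction per protease–substrate barcode pair counted by paired-end Illumina sequencing.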

MGESLFKGPRDYNPISSSICHLTNESDGHTTSLYGIGFGPFIITNKHLFRRNNGTLVVQSLHGVFKVKDTTTLQQHLVDGRDMIIIRMPKDFPPFPQKLKFREPQREERICLVTTNFQTKSMSSMVSRTSCTFPSGDGIFWKHWIQTKDGQCGSPLVSTRDGFIVGIHSASNFTNTNNYFTSVPKNFMELLTNQEAQQWVSGWRLNADSVLWGGHKVFMVKPEEPFQPVKEATQL [D128R]: the “area with substrate ENCYFQS” value is 0.0769, the “area with substrate ENDYFQS” value was 0.0579, the “area with substrate ENEYFQS” value came to 0.053 and the “area with substrate ENFYFQS” value is 0.0661. Moreover, the “area with substrate ENGYFQS” value was 0.0584, the “area with substrate ENHYFQS” value amounted to 0.061, the “area with substrate ENMYFQS” value is 0.095 and the “area with substrate ENQYFQS” value was 0.0602. Besides, the “area with substrate ENRYFQS” value is 0.0621, the “area with substrate ENSYFQS” value is 0.0754 and the “area with substrate ENYYFQS” value amounted to 0.0579.

Regarding MGESLFKGPRDYNPISSSICHLTNESDGHTTSLYGIGFGPFIITNKHLFRRNNGTLVVQSLHGVFKVKDTTTLQQHLVDGRDMIIIRMPKDFPPFPQKLKFREPQREERICLVTTNFQTKSMSSMVSDTSCTFPSGDGIFWKHWIQTKDGQCGSPLVSTYDGFIVGIHSASNFTNTNNYFTSVPKNFMELLTNQEAQQWVSGWRLNADSVLWGGHKVFMVKPEEPFQPVKEATQL [R160Y], the “area with substrate ENCYFQS” value is 0.0648, the “area with substrate ENDYFQS” value is 0.0616, the “area with substrate ENEYFQS” value turned out to be 0.0644 and the “area with substrate ENGYFQS” value amounted to 0.0711. Also, the “area with substrate ENHYFQS” value stood at 0.0592, the “area with substrate ENKYFQS” value is 0.0603, the “area with substrate ENMYFQS” value is 0.105 and the “area with substrate ENNYFQS” value came out at 0.0541. Besides, the “area with substrate ENPYFQS” value is 0.0547, the “area with substrate ENQYFQS” value worked out at 0.0343, the “area with substrate ENSYFQS” value stood at 0.0634 and the “area with substrate ENVYFQS” value was determined as 0.0713. The “area with substrate ENWYFQS” value is 0.0522.

As to MGESLFKGPRDYNPISSSICHLTNESDGHTTSLYGIGFGPFIITNKHLFRRNNGTLVVQSLHGVFKVKDTTTLQQHLVDGRDMIIIRMPKDFPPFPQKLKFREPQREERICLVTTNFQTKSMSSMVSDTSCTFPSGDGIFWKHWIQTKDGQCGSPLVSTRDGFIVGIQSASNFTNTNNYFTSVPKNFMELLTNQEAQQWVSGWRLNADSVLWGGHKVFMVKPEEPFQPVKEATQL [H168Q], the “area with substrate ENCYFQS” value was 0.0596, the “area with substrate ENDYFQS” value was 0.0518, the “area with substrate ENEYFQS” value worked out at 0.0404 and the “area with substrate ENFYFQS” value amounted to 0.0419. In addition, the “area with substrate ENGYFQS” value turned out to be 0.0629, the “area with substrate ENKYFQS” value is 0.122, the “area with substrate ENNYFQS” value was 0.0653 and the “area with substrate ENQYFQS” value stood at 0.0636. Further, the “area with substrate ENSYFQS” value came to 0.0611, the “area with substrate ENTYFQS” value worked out at 0.0655, the “area with substrate ENVYFQS” value is 0.06 and the “area with substrate ENWYFQS” value was 0.0535. Further, the “area with substrate ENYYFQS” value stood at 0.0731.

As to MGESLFKGPRDYNPISSSICHLTNESDGHTTSLYGIGFGPFIITNKHLFRRNNGTLVVQSLHGVFKVKDTTTLQQHLVDGRDMIIIRMPKDFPPFPQKLKFREPQREERICLVTTNFQTKSMSSMVSDTSCTFPSGDGIFWKHWIQTKDGQCGSPLVSTRDGFIVGIHSASNFTNRNNYFTSVPKNFMELLTNQEAQQWVSGWRLNADSVLWGGHKVFMVKPEEPFQPVKEATQL [T176R], the “area with substrate ENCYFQS” value stood at 0.0327, the “area with substrate ENHYFQS” value came out at 0.0542, the “area with substrate ENQYFQS” value is 0.0877 and the “area with substrate ENTYFQS” value is 0.0615.

Turning to MGESLFKGPRDYNPISSSICHLTNESDGHTTSLYGIGFGPFIITNKHLFRRNNGTLVVQSLHGVFKVKDTTTLQQHLVDGRDMIIIRMPKDFPPFPQKLKFREPQREERICLVTTNFQTKSMSSMVSDTSCTFPSGDGIFWKHWIQTKDGQCGSPLVSTRDGFIVGIHSASNFTNSNNYFTSVPKNFMELLTNQEAQQWVSGWRLNADSVLWGGHKVFMVKPEEPFQPVKEATQL [T176S], the “area with substrate ENCYFQS” value stood at 0.062, the “area with substrate ENDYFQS” value was 0.0608, the “area with substrate ENEYFQS” value is 0.065 and the “area with substrate ENFYFQS” value is 0.059. Besides, the “area with substrate ENGYFQS” value turned out to be 0.0628, the “area with substrate ENHYFQS” value is 0.0601, the “area with substrate ENIYFQS” value is 0.083 and the “area with substrate ENKYFQS” value is 0.0508. For the same variant, the “area with substrate ENNYFQS” value was determined as 0.0562, the “area with substrate ENPYFQS” value amounted to 0.0452, the “area with substrate ENQYFQS” value is 0.0688 and the “area with substrate ENRYFQS” value stood at 0.0493. Moreover, the “area with substrate ENSYFQS” value was 0.0365, the “area with substrate ENVYFQS” value stood at 0.0712 and the “area with substrate ENYYFQS” value turned out to be 0.0533.

As for MGESLFKGPRDYNPISSSICHLTNESDGHTTSLYGIGFGPFIITNKHLFRRNNGTLVVQSLHGVFKVKDTTTLQQHLVDGRDMIIIRMPKDFPPFPQKLKFREPQREERICLVTTNFQTKSMSSMVSDTSCTFPSGDGIFWKHWIQTKDGQCGSPLVSTRDGFIVGIHSASNFTNDNNYFTSVPKNFMELLTNQEAQQWVSGWRLNADSVLWGGHKVFMVKPEEPFQPVKEATQL [T176D], the “area with substrate ENCYFQS” value came out at 0.0561, the “area with substrate ENDYFQS” value is 0.0695, the “area with substrate ENFYFQS” value worked out at 0.0549 and the “area with substrate ENIYFQS” value was determined as 0.0715. Further, the “area with substrate ENMYFQS” value came to 0.0535, the “area with substrate ENPYFQS” value came out at 0.072, the “area with substrate ENQYFQS” value worked out at 0.069 and the “area with substrate ENRYFQS” value stood at 0.0582. Further, the “area with substrate ENSYFQS” value is 0.0622, the “area with substrate ENVYFQS” value amounted to 0.0265, the “area with substrate ENWYFQS” value was 0.0708 and the “area with substrate ENYYFQS” value came out at 0.0584.

Regarding MGESLFKGPRDYNPISSSICHLTNESDGHTTSLYGIGFGPFIITNKHLFRRNNGTLVVQSLHGVFKVKDTTTLQQHLVDGRDMIIIRMPKDFPPFPQKLKFREPQREERICLVTTNFQTKSMSSMVSDTSCTFPSGDGIFWKHWIQTKDGQCGSPLVSTRDGFAVGIHSASNFTNTNNYFTSVPKNFMELLTNQEAQQWVSGWRLNADSVLWGGHKVFMVKPEEPFQPVKEATQL [I164A], the “area with substrate ENCYFQS” value is 0.0659, the “area with substrate ENDYFQS” value is 0.0592, the “area with substrate ENEYFQS” value was determined as 0.0501 and the “area with substrate ENFYFQS” value came out at 0.0446. Also, the “area with substrate ENIYFQS” value came to 0.0585, the “area with substrate ENQYFQS” value is 0.0597, the “area with substrate ENSYFQS” value is 0.0589 and the “area with substrate ENTYFQS” value is 0.0466. Also, the “area with substrate ENYYFQS” value came to 0.0412.

Regarding MGESLFKGPRDYNPISSSICHLTNESDGHTTSLYGIGFGPFIITNKHLFRRNNGTLVVQSLHGVFKVKDTTTLQQHLVDGRDMIIIRMPKDFPPFPQKLKFREPQREERICLVTTNFQTKSMSSMVSDTSCTFPSGDGIFWKHWIQTKDGQCGSPLVSTRDGFIVGIHSASNFTNTNNYFTSVHKNFMELLTNQEAQQWVSGWRLNADSVLWGGHKVFMVKPEEPFQPVKEATQL [P184H], the “area with substrate ENCYFQS” value came out at 0.054, the “area with substrate ENEYFQS” value was 0.092, the “area with substrate ENFYFQS” value turned out to be 0.0568 and the “area with substrate ENHYFQS” value stood at 0.0507. Also, the “area with substrate ENIYFQS” value came to 0.089, the “area with substrate ENKYFQS” value amounted to 0.0458, the “area with substrate ENQYFQS” value is 0.0546 and the “area with substrate ENRYFQS” value is 0.0377. For the same variant, the “area with substrate ENSYFQS” value stood at 0.063, the “area with substrate ENTYFQS” value was 0.0458, the “area with substrate ENVYFQS” value turned out to be 0.0547 and the “area with substrate ENYYFQS” value turned out to be 0.056.

In the case of MGESLFKGPRDYNPISSSICHLTNESDGHTTSLYGIGFGPFIITNKHLFRRNNGTLVVQSLHGVFKVKDTTTLQQHLVDGRDMIIIRMPKDFPPFPQKLKFREPQREERICLVTTNFQTKSMSSMVSDTSCTFPSGDGIFWKHWIQTKDGQCGSPLVSTRDGFIVGIHSASNFTNTNNYFTSVGKNFMELLTNQEAQQWVSGWRLNADSVLWGGHKVFMVKPEEPFQPVKEATQL [P184G], the “area with substrate ENCYFQS” value is 0.118, the “area with substrate ENDYFQS” value stood at 0.0411, the “area with substrate ENEYFQS” value was determined as 0.0464 and the “area with substrate ENNYFQS” value was 0.0286. Besides, the “area with substrate ENPYFQS” value turned out to be 0.0587, the “area with substrate ENQYFQS” value was 0.05, the “area with substrate ENSYFQS” value worked out at 0.0644 and the “area with substrate ENTYFQS” value was determined as 0.0536. The “area with substrate ENVYFQS” value is 0.0475.

Regarding MGESLFKGPRDYNPISSSICHLTNESDGHTTSLYGIGFGPFIITNKHLFRRNNGTLVVQSLHGVFKVKDTTTLQQHLVDGRDMIIIRHPKDFPPFPQKLKFREPQREERICLVTTNFQTKSMSSMVSDTSCTFPSGDGIFWKHWIQTKDGQCGSPLVSTRDGFIVGIHSASNFTNTNNYFTSVPKNFMELLTNQEAQQWVSGWRLNADSVLWGGHKVFMVKPEEPFQPVKEATQL [M88H], the “area with substrate ENCYFQS” value amounted to 0.0368, the “area with substrate ENDYFQS” value came out at 0.051, the “area with substrate ENQYFQS” value amounted to 0.0389 and the “area with substrate ENSYFQS” value was 0.0835. The “area with substrate ENVYFQS” value was found to be 0.0496.

As to MGESLFKGPRDYNPISSSICHLTNESDGHTTSLYGIGFGPFIITNKHLFRRNNGTLVVQSLHGVFKVKDTTTLQQHLVDGRDMIIIRCPKDFPPFPQKLKFREPQREERICLVTTNFQTKSMSSMVSDTSCTFPSGDGIFWKHWIQTKDGQCGSPLVSTRDGFIVGIHSASNFTNTNNYFTSVPKNFMELLTNQEAQQWVSGWRLNADSVLWGGHKVFMVKPEEPFQPVKEATQL [M88C], the “area with substrate ENCYFQS” value worked out at 0.0594, the “area with substrate ENFYFQS” value was found to be 0.0632, the “area with substrate ENHYFQS” value is 0.0688 and the “area with substrate ENKYFQS” value stood at 0.0637. The “area with substrate ENMYFQS” value was 0.0669, the “area with substrate ENNYFQS” value amounted to 0.0592, the “area with substrate ENQYFQS” value came to 0.0712 and the “area with substrate ENSYFQS” value worked out at 0.0648. The “area with substrate ENTYFQS” value was determined as 0.0603, the “area with substrate ENVYFQS” value worked out at 0.0758, the “area with substrate ENWYFQS” value was 0.0031 and the “area with substrate ENYYFQS” value came out at 0.0673.
